Results reported in the supplement of paper PMC3334620.
Whole data set: some 33,000 sequences, median “E-score (-0.5 to 0.5)” near -0.017, cut for the highest 2% near 0.3. The list shows a part of the results.

These sequences were tested against T1, Sut1 (UniProt P53032) (assay: PBM E-score (8-mer binding enrichment) (E-score (-0.5 to 0.5)); higher = stronger / more preferred TF binding; most listed sequences are background and not binding sites). Conditions: protein concentration: 200 nM; construct: GST-full length.
T1 sequence: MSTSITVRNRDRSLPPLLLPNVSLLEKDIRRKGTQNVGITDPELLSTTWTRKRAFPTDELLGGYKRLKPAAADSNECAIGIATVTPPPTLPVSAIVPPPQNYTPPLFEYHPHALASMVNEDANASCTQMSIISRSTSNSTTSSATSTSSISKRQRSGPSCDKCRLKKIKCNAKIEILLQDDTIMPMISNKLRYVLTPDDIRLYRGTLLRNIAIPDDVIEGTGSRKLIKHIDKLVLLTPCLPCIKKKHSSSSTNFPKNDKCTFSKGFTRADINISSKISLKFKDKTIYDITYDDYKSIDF
How it was run: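 Bound GST-tagged yeast transcription factors, applied at about 100-200 nM to double-stranded universal all-10-mer Agilent arrays, were detected with fluorescent anti-GST. Scans were normalised with masliner. A modified Wilcoxon-Mann-Whitney statistic, the E-score, was assigned to each ungapped eight-base word pooled with its reverse complement by the Universal PBM Analysis Suite.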

Sequence | PBM E-score
CGTGTTTA | 0.187
CGCGGACA | 0.237
GCCTGCGA | -0.217
AATTTAAA | 0.286
AGGTAATG | -0.0464
GCTTGGAA | -0.102
CCTGGCCG | -0.0954
ACACTTCG | -0.102
GGACCTAC | 0.197
CACAGAGG | -0.262
CCTATGCA | -0.139
AAATTTCT | 0.252
ACGACCAA | 0.0789
CTCGTGAC | -0.235
CAGAAAAA | 0.0845
CACCTACC | -0.206
GGGCTAAA | -0.216
ATCTCGAG | 0.019
CATTCTAG | -0.0271
ACACCGCT | -0.197
CGGGTTTA | 0.144
AGCGGGGA | -0.149

Sequence | PBM E-score
AGTGCTCG | -0.0481
CCTACGCG | -0.166
GCTAGGAA | -0.0732
CCAACAGA | -0.141
AGAGGCAA | -0.0652
ACCTTCTA | 0.0755
GCCCCATA | -0.245
GGAGGCCA | -0.282
GAGCAATC | 0.00468
ACACGTAC | 0.0618
AGAGGCGA | -0.137
CAACGGTC | -0.0872
AGCGATAA | 0.0334
GGGTGGTA | -0.128
CGTTGAAC | -0.0173
CGTAACAC | -0.169
ACAGGCCT | -0.197
AGCTTCCA | -0.0034
CTTAGAGC | 0.0425
ACAGAGGT | -0.13
CCAACTTC | -0.041
GACCAGTA | -0.274

Sequence | PBM E-score
GTGAATTA | 0.0914
ACCCCCAG | -0.287
CTCTGTAA | -0.134
GCTTCCGA | 0.303
ATATGGTG | -0.0888
ATCTGCCG | 0.143
ACAATTTC | 0.0702
CCATCCAA | 0.144
CATTCGGA | 0.392
CGGGGTAA | 0.224
CAAGTAAA | 0.0738
CGTTGTTC | 0.086
CGTGCTAC | -0.252
ACCTGGTC | -0.138
CTGGTAGA | -0.0164
GACCACGC | -0.218
CCACACGC | -0.197
TCTCGCCA | -0.0247
AAACCAAG | 0.117
ATTCTGGG | -0.169
CCCGCGGA | 0.295
GACAGCTA | -0.149

Sequence | PBM E-score
ATGAGTCG | -0.157
GCTGAAAC | 0.0538
CGCATAAG | -0.0216
AAGATACG | 0.224
CATACTCC | 0.325
AGTTGCTG | -0.0452
AGACTCGC | -0.232
ACGGGGCA | -0.204
AATGCTGG | -0.172
CATATTAC | 0.179
AATTACTA | 0.175
AATTGCTA | 0.111
CTCCTCCC | -0.271
CCTTACGC | -0.0944
ACCCCCGT | -0.282
CCCATCGA | -0.0349
CGATACCG | -0.126
AAGTAGGA | -0.0349
ACAGGTTC | -0.163
ACTTGCTA | -0.0901
